Target: T1, H6 flagella (polymeric FliC flagellin) of E. coli O127:H6 (E. coli O127:H6, UniProt B7USU2 1-548)
T1 sequence: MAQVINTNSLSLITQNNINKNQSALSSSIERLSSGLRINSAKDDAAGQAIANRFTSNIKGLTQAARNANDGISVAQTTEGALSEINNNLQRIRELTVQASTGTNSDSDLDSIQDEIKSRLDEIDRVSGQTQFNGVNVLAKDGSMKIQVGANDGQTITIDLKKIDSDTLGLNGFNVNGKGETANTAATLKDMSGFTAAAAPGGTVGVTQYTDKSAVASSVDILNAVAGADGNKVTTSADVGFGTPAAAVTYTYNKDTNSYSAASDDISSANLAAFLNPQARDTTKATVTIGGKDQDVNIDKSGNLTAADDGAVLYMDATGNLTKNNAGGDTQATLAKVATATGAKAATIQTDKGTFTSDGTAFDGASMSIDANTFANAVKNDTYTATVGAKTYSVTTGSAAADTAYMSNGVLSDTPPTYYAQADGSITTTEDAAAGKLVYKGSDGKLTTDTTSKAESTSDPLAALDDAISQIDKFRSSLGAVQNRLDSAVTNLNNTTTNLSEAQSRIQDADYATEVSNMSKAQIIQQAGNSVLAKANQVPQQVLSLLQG
Assay: ELISA
Details: both partners purified

B1: recombinant human cofilin-1 (natural protein)
chain: not shown
notes: also called CFL1; CFL
B1: binds.
